The other results are listed elsewhere or left out.
B1: chr13:100201082:100201083:-_ENSMUSG00000052727_ENSMUST00000064762|mus_hu|FALSE|FALSE (ssRNA)
RNA: GGGAGUUCUACAGUCCGACGAUCAAGAUCAUUAUCUUGGGUGUAGGACGGCUCCUCCAUAGGUGGUAUCUUAUGUGAUAAACUGGAGUCCUGCAUGUCAGAAGGACUGUAGUCCACUUCAGUUGGCCCAUUUUCAGUGAUGUGCAACAGAGGAUUGAGCAUCA
B2: chr17:65740002:65740003:+_ENSG00000130935_ENST00000581375|hu_hu|hu_hu_hu_mus_False|68_68 (ssRNA)
RNA: GGGAGUUCUACAGUCCGACGAUCAACAAAUCUUUCUUCCCUGGACGAACAGGAAGAUUCAUAUUAACUUUAUAAAAUAUCCAUCAAGUUAGGUGUGGUGGCCACACCUUUACUCCCAGCACUUUGGGAGGUGGAUCUCUGAGUCAACAGAGGAUUGAGCAUCA
B3: 64081242_64081362_2382_3pUTR_ENSMUSG00000025959_ENSMUST00000114086|mouse|control|control (ssRNA)
RNA: GGGAGUUCUACAGUCCGACGAUCUUUAAGCUUCCAAAUAAGCUUUUUUUUUUUUUUCAAGUUUUCAUUAGCAAAAAAUCAGAGAGAUUUAAAAAGAAAAAAUCUAGCACUGGCAAGAAGGUGAGGCUCAAGGGGUAUACUGUGCAACAGAGGAUUGAGCAUCA
B4: chr19:7360422:7360423:-_ENSMUSG00000024969_ENSMUST00000032557|mus_mus|motif|central (ssRNA)
RNA: GGGAGUUCUACAGUCCGACGAUCAUAAGGAGGACUGCCACAGAAAGUAUCCAGCUUGUUCCCAAAGGUGAAUUCGUUGCGGAAGCCAAAGUCUGCAAUCUUGAUGUUCAUAUCAGCAUCCAGGAGCAGGUUUUCUGCCUUUAGCAACAGAGGAUUGAGCAUCA
B5: chr8:95500983:95500984:-_ENSG00000164944_ENST00000437199|hu_hu|hu_hu_hu_mus_True|58_88 (ssRNA)
RNA: GGGAGUUCUACAGUCCGACGAUCAGAACACAUCUAUCGAGUAAAGGGAGCGUACAUACGGCCUCUACCACUGCCUCCCACUAACAACUUUCCUCUCGAGCCUCCACUGCCGCUAUUUGUACUAGCCCAGGACGGUCCCAGGCCCAACAGAGGAUUGAGCAUCA
B6: 20809958_20810078_1146_3pUTR_ENSG00000196678_ENST00000357967|human|control|control (ssRNA)
RNA: GGGAGUUCUACAGUCCGACGAUCUGAACAGUUGGAACGGUGGUAGAAACAAGUACCAAUUCUGAACCAACUGUUGAAGCCUUAGAUUUGGUAUUAAAUGCAAGAUGUUCAUUUUUUCCUUGCUUUUGCAUAUAGAUAGGUGAACAACAGAGGAUUGAGCAUCA
B7: chr1:235599081:235599082:+_ENSG00000116957_ENST00000366601|hu_mus|motif|central (ssRNA)
RNA: GGGAGUUCUACAGUCCGACGAUCAGAUCUGCUAUAAGGCUCAGCUGGCUUUCAUCAAUUGAUGGGUUGGAGGAAAGGUCGGGUAACCUCAUUUUCUGCAGGACAUUCACUGGCCUUUCAGAAAUGGAAAUAUUGUUAGACUUGCAACAGAGGAUUGAGCAUCA
B8: 47823176_47823296_171_CDS_ENSG00000173473_ENST00000254480|human|control|control (ssRNA)
RNA: GGGAGUUCUACAGUCCGACGAUCGCCCCCAUCCUUCCGUCGAUAAACAGCUAGGCCUGCGGCUGCCGCCGCAAUCCCCGAGCCCGUGGCGCCUACCGCUGUCCCCGGCCCGCCGCCGCCCGCCGCUGCGGCCAUCGUCGCAGCCAACAGAGGAUUGAGCAUCA
B9: chr15:66840984:66840985:+_ENSG00000174442_ENST00000446801|hu_hu|FALSE|FALSE (ssRNA)
RNA: GGGAGUUCUACAGUCCGACGAUCCUAUUUUUUAAGUUUUCCCAAUACAGUUAAAGCUUUUGGGAUAAAGCUGUAUUUACUAAAAUGAUCCUGUUCUCAUUUGUGGUGCUCGUUCUCUUUGUCAUUUCAGAGCCCUUGCUAAGUCAACAGAGGAUUGAGCAUCA
B10: chrX:98862621:98862622:+_ENSMUSG00000034160_ENSMUST00000044475|mus_hu|mus_mus_mus_hu_False|28_48 (ssRNA)
RNA: GGGAGUUCUACAGUCCGACGAUCCUGCAUCUCCUUUAGAGUGUUUCCCAUAUUAGAGUAGGCAUCAGCAAAGGUAGGACUGAUUCGUAUGGCUUCUUUAUAAUGCAUCAGUGCUUCCUGCAGUUUUCCCUGCUGCUGCAGUACCAACAGAGGAUUGAGCAUCA
B11: chr2:144079538:144079539:-_ENSMUSG00000027423_ENSMUST00000110030|mus_mus|motif|central (ssRNA)
RNA: GGGAGUUCUACAGUCCGACGAUCGGCCUUGUCCAAAGCUUUGUUUGAAUUCUCAUAGUCAAUUAGGGCUUUGGUACGUCGGUACAAGAGAUCCUUUGCAGCCUCUAUGUUGAGCAUGUAGUAUCGGAGGAGCUCUGUCAGUUUCAACAGAGGAUUGAGCAUCA
B12: chr6:83912051:83912052:+_ENSMUSG00000030016_ENSMUST00000032088|mus_mus|FALSE|FALSE (ssRNA)
RNA: GGGAGUUCUACAGUCCGACGAUCUGCCUUUUUAUGAGAUGAUAAAACCAAAAUGUCCUUCAAAGCACCAAAUGGUUUUGCUAAGUUGUAAAUUUCUUCUGUAGAAUAUCCUUUGUUAGGCAAAUUAGAAAUAAAUACUACACUCAACAGAGGAUUGAGCAUCA
B13: 125270748_125273069_130_CDS_ENSMUSG00000030654_ENSMUST00000032888|mouse|control|control (ssRNA)
RNA: GGGAGUUCUACAGUCCGACGAUCCAGCUGCUCUUCAAGACUUGCAGUCUCCACGGCCAGCAGGUUGCUGCUGCGGUUAUCCCCCUCCGCCAUCGUUCCAGACUCGCGGUUAUCAACGAGCGAACACACACUAUCCCCCCAACACAACAGAGGAUUGAGCAUCA
B14: chr7:90019327:90019328:+_ENSMUSG00000057706_ENSMUST00000082237|mus_hu|FALSE|FALSE (ssRNA)
RNA: GGGAGUUCUACAGUCCGACGAUCUGAAAUAUAAUUUUUCAAGUCAAAAAAGAAUAAAAUACUUCAAUCUGUAUUAAUGCAAUUUCUCUUUAAAACUUUUAAACGUUUUUAAUAUAUAAGAGAUAUGUUACAGUUUCUUUAACUCAACAGAGGAUUGAGCAUCA

biological target: T1, UNK ZnF1-3 (human, UniProt Q9C0B0 31-174); assay: nsRBNS (natural sequence RNA bind-n-seq); RBNS binding buffer (assumed for nsRBNS): 25 mM Tris pH 7.5, 150 mM KCl, 3 mM MgCl2, 0.01% Triton X-100, 500 ug/ml BSA, 20 U/ml SUPERase-In, 4 C; UNK is unkempt and MSI1 is Musashi-1; names of the RNAs are library labels; protein concentration not given here; high values mean tight binding
T1 sequence: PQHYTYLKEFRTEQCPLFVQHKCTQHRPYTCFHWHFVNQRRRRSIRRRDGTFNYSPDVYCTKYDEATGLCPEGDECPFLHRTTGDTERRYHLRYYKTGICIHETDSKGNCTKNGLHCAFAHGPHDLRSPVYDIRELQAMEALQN

| Binder | binding signal |
| --- | --- |
| B1 | 0.832 enrichment R |
| B2 | 0.704 enrichment R |
| B3 | 2.13 enrichment R |
| B4 | 0.865 enrichment R |
| B5 | 1.51 enrichment R |
| B6 | 0.692 enrichment R |
| B7 | 1.26 enrichment R |
| B8 | 1.65 enrichment R |
| B9 | 0.693 enrichment R |
| B10 | 0.901 enrichment R |
| B11 | 1.13 enrichment R |
| B12 | 0.942 enrichment R |
| B13 | 1.15 enrichment R |
| B14 | 0.764 enrichment R |
